Assay results published in the supplement of paper PMC4604168 (melanoma cell lines).
Some of the results follow. Single values are uncertain, as repeats are few or missing.

Tested on: LOXIMVI
Assay: cell count relative to DMSO control; melanoma cells; higher = more viable cells
Conditions: library dose: standard library concentration; 72 h
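Further: cells treated in 1,536-well plates, then fixed and DAPI-stained, with nuclei counted from automated high-throughput microscope images.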

| SMILES | cell count [%] |
| --- | --- |
| CC(C)(C)c1cnc(CSc2cnc(NC(=O)C3CCNCC3)s2)o1 + COc1cc2c(Oc3ccc4[nH]c(C)cc4c3F)ncnc2cc1OCCCN1CCCC1 [cediranib] (first compound 0.05 µM, partner dose 2 µM) | 53.7 |
| Cc1ccc(NC(=O)c2cccc(N(C)C)c2)cc1NC(=O)c1ccc(O)cc1 + CO[C@@H]1[C@H](N(C)C(=O)c2ccccc2)C[C@H]2O[C@]1(C)n1c3ccccc3c3c4c(c5c6ccccc6n2c5c31)C(=O)NC4 [Midostaurin] (first compound 10 µM, partner dose 0.4 µM) | 61 |
| CCCCCCCCc1ccc(CCC(N)(CO)CO)cc1 [fingolimod] + Oc1nc(-c2ccc(C(F)(F)F)cc2)nc2c1CSCC2 [XAV939] (first compound 10 µM, partner dose 10 µM) | 84.5 |
| Cc1ccc(NC(=O)c2cccc(N(C)C)c2)cc1NC(=O)c1ccc(O)cc1 + CN(NC(=O)CC(=O)NN(C)C(=S)c1ccccc1)C(=S)c1ccccc1 [STA4783] (first compound 10 µM, partner dose 0.03 µM) | 71 |

Tested on: MEL-HO
Assay: as above
Conditions: library dose: standard library concentration; 72 h

| SMILES | cell count [%] |
| --- | --- |
| CCCCCCCCc1ccc(CCC(N)(CO)CO)cc1 [fingolimod] + Cc1cc([N+](=O)[O-])ccc1NS(=O)(=O)c1cc(Cl)ccc1Cl [FH535] (first compound 10 µM, partner dose 5 µM) | 26.2 |
| CN(NC(=O)CC(=O)NN(C)C(=S)c1ccccc1)C(=S)c1ccccc1 + COc1cc2c(Oc3ccc4[nH]c(C)cc4c3F)ncnc2cc1OCCCN1CCCC1 [cediranib] (first compound 0.03 µM, partner dose 2 µM) | 88.6 |
| CCc1ccc(CCOc2ccc(CC3SC(=O)NC3=O)cc2)nc1 (stereo not given) [pioglitazone] + O=C1NC(=O)/C(=C/c2ccc(-c3ccc(F)cc3O)o2)S1 [AS252424] (first compound 10 µM, partner dose 5 µM) | 82.9 |
| Cc1ccc(NC(=O)c2cccc(N(C)C)c2)cc1NC(=O)c1ccc(O)cc1 + CCCCCCCCCCCC1=C(O)C(=O)C=C(O)C1=O [Embelin] (first compound 10 µM, partner dose 6 µM) | 75 |
| Cc1ccc(NC(=O)c2cccc(N(C)C)c2)cc1NC(=O)c1ccc(O)cc1 + COc1ccc2c(c1)CCC1C2CCC2(C)C(NCCCCCCN3C(=O)C=CC3=O)CCC12 [U73122] (first compound 10 µM, partner dose 2 µM) | 86.4 |
| CC(C)(C)c1cnc(CSc2cnc(NC(=O)C3CCNCC3)s2)o1 + CN(NC(=O)CC(=O)NN(C)C(=S)c1ccccc1)C(=S)c1ccccc1 [STA4783] (first compound 0.05 µM, partner dose 0.03 µM) | 76.3 |
| CN(NC(=O)CC(=O)NN(C)C(=S)c1ccccc1)C(=S)c1ccccc1 + COc1cc(N2CCC(N3CCN(C)CC3)CC2)ccc1Nc1ncc(Cl)c(Nc2ccccc2S(=O)(=O)C(C)C)n1 [NVP-TAE684] (first compound 0.03 µM, partner dose 0.4 µM) | 74 |
| CN(NC(=O)CC(=O)NN(C)C(=S)c1ccccc1)C(=S)c1ccccc1 + CCCCCCCCCCCC1=C(O)C(=O)C=C(O)C1=O [Embelin] (first compound 0.03 µM, partner dose 6 µM) | 62.8 |
| CC(C)(C)c1cnc(CSc2cnc(NC(=O)C3CCNCC3)s2)o1 + O=C(Nc1ccccc1)c1cc([N+](=O)[O-])ccc1Cl [GW9662] (first compound 0.05 µM, partner dose 10 µM) | 101 |
| CCCCCCCCc1ccc(CCC(N)(CO)CO)cc1 [fingolimod] + CCCS(=O)(=O)Nc1ccc(F)c(C(=O)c2c[nH]c3ncc(Cl)cc23)c1F [PLX4720] (first compound 10 µM, partner dose 0.4 µM) | 1.16 |
| CCCCCCCCc1ccc(CCC(N)(CO)CO)cc1 [fingolimod] + O=C(O)C(=O)Nc1sc2c(c1C(=O)O)CCNC2 [TCS401] (first compound 10 µM, partner dose 8.33333 µM) | 10.8 |
| CCc1ccc(CCOc2ccc(CC3SC(=O)NC3=O)cc2)nc1 (stereo not given) [pioglitazone] + COC(=O)c1sccc1S(=O)(=O)Nc1ccc(Nc2ccccc2)cc1OC [GSK0660] (first compound 10 µM, partner dose 5 µM) | 91.5 |
| COc1cc2c(Oc3ccc4[nH]c(C)cc4c3F)ncnc2cc1OCCCN1CCCC1 [cediranib] + COc1cc(N2CCC(N3CCN(C)CC3)CC2)ccc1Nc1ncc(Cl)c(Nc2ccccc2S(=O)(=O)C(C)C)n1 [NVP-TAE684] (first compound 2 µM, partner dose 0.4 µM) | 96.9 |
| CC(C)(C)c1cnc(CSc2cnc(NC(=O)C3CCNCC3)s2)o1 + CCCCCCCCCCCC1=C(O)C(=O)C=C(O)C1=O [Embelin] (first compound 0.05 µM, partner dose 6 µM) | 70 |
| CCCCCCCCc1ccc(CCC(N)(CO)CO)cc1 [fingolimod] + CN1CCN(c2ccc3nc(-c4c(N)c5c(F)cccc5[nH]c4=O)[nH]c3c2)CC1 [Dovitinib] (first compound 10 µM, partner dose 0.5 µM) | 0.965 |
| CCCCCCCCc1ccc(CCC(N)(CO)CO)cc1 [fingolimod] + COc1ccc2c(c1)CCC1C2CCC2(C)C(NCCCCCCN3C(=O)C=CC3=O)CCC12 [U73122] (first compound 10 µM, partner dose 2 µM) | 11.6 |

| SMILES | cell count [%] |
| --- | --- |
| Cc1ccc(NC(=O)c2cccc(N(C)C)c2)cc1NC(=O)c1ccc(O)cc1 + Cc1cc(N2CCOCC2)cc2[nH]c(-c3c(NC[C@@H](O)c4cccc(Cl)c4)cc[nH]c3=O)nc12 [BMS536924] (first compound 10 µM, partner dose 1 µM) | 95.2 |
| NC(=O)c1ccc(N(C(N)=O)c2c(F)cccc2F)nc1-c1ccc(F)cc1F + CCCCCCCCCCCC1=C(O)C(=O)C=C(O)C1=O [Embelin] (first compound 2 µM, partner dose 6 µM) | 80 |
| NC(=O)c1ccc(N(C(N)=O)c2c(F)cccc2F)nc1-c1ccc(F)cc1F + Cn1nnc2c(C(N)=O)ncn2c1=O [temozolomide] (first compound 2 µM, partner dose 10 µM) | 92 |
| CN(NC(=O)CC(=O)NN(C)C(=S)c1ccccc1)C(=S)c1ccccc1 + COc1ccc2c(c1)CCC1C2CCC2(C)C(NCCCCCCN3C(=O)C=CC3=O)CCC12 [U73122] (first compound 0.03 µM, partner dose 2 µM) | 97.5 |
| NC(=O)c1ccc(N(C(N)=O)c2c(F)cccc2F)nc1-c1ccc(F)cc1F + CN(NC(=O)CC(=O)NN(C)C(=S)c1ccccc1)C(=S)c1ccccc1 [STA4783] (first compound 2 µM, partner dose 0.03 µM) | 73 |
| Cc1ccc(NC(=O)c2cccc(N(C)C)c2)cc1NC(=O)c1ccc(O)cc1 + O=C(Nc1cccc(Cl)c1)Nc1ncc(CCNc2ncnc3ccsc23)s1 [SNS314] (first compound 10 µM, partner dose 0.004 µM) | 78.3 |
| CCCCCCCCc1ccc(CCC(N)(CO)CO)cc1 [fingolimod] + COC(=O)c1sccc1S(=O)(=O)Nc1ccc(Nc2ccccc2)cc1OC [GSK0660] (first compound 10 µM, partner dose 5 µM) | 4.7 |
| CCCCCCCCc1ccc(CCC(N)(CO)CO)cc1 [fingolimod] + CCCCCCCCCCCC1=C(O)C(=O)C=C(O)C1=O [Embelin] (first compound 10 µM, partner dose 6 µM) | 54.5 |
| NC(=O)c1ccc(N(C(N)=O)c2c(F)cccc2F)nc1-c1ccc(F)cc1F + CN1CCN(c2ccc3nc(-c4c(N)c5c(F)cccc5[nH]c4=O)[nH]c3c2)CC1 [Dovitinib] (first compound 2 µM, partner dose 0.5 µM) | 80.2 |
| CC(C)(C)c1cnc(CSc2cnc(NC(=O)C3CCNCC3)s2)o1 + NCC(=O)Nc1ccc(-n2nc(C(F)(F)F)cc2-c2ccc3c(ccc4ccccc43)c2)cc1 [OSU03012] (first compound 0.05 µM, partner dose 5 µM) | 75.9 |
| CCCCCCCCc1ccc(CCC(N)(CO)CO)cc1 [fingolimod] + NC1(c2ccc(-c3nc4ccn5c(=O)[nH]nc5c4cc3-c3ccccc3)cc2)CCC1 [MK2206] (first compound 10 µM, partner dose 2 µM) | 3 |
| CC(C)(C)c1cnc(CSc2cnc(NC(=O)C3CCNCC3)s2)o1 + Oc1cc(-c2nc(-c3ccccc3)[nH]c2-c2ccncc2)ccc1Cl [L779450] (first compound 0.05 µM, partner dose 1 µM) | 100 |
| CCc1ccc(CCOc2ccc(CC3SC(=O)NC3=O)cc2)nc1 (stereo not given) [pioglitazone] + Oc1nc(-c2ccc(C(F)(F)F)cc2)nc2c1CSCC2 [XAV939] (first compound 10 µM, partner dose 10 µM) | 93.6 |
| COc1cc2c(Oc3ccc4[nH]c(C)cc4c3F)ncnc2cc1OCCCN1CCCC1 [cediranib] + Cn1cc(/C=C2\C(=O)Nc3cccnc32)c2ccccc21 [GW441756] (first compound 2 µM, partner dose 2 µM) | 110 |
| CCCCCCCCc1ccc(CCC(N)(CO)CO)cc1 [fingolimod] + Cn1cncc1[C@@](N)(c1ccc(Cl)cc1)c1ccc2c(c1)c(-c1cccc(Cl)c1)cc(=O)n2C [tipifarnib] (first compound 10 µM, partner dose 0.05 µM) | 1.52 |
